Reference: PubChem BioAssay AID624417 (National Center for Advancing Translational Sciences (NCATS), 2012)
Out of some 410,000 compounds screened, about 6,400 (1.6%) were called active. This list was built around the results that the source calls inconclusive (neither active nor inactive); the mix of calls is not that of the screen. Calls follow the shape of the dose curve; as a rule, active = well fitted inhibition curve with a large enough effect; inconclusive = small, poorly fitted or top-dose-only effect; inactive = no such curve, though single readings can be large or run the other way. No potency is given beside an inconclusive call; the fits are too rough.

Molecular target: Glucagon-like peptide 1 receptor (Homo sapiens) (UniProt P43220)
Test: qHTS of GLP-1 Receptor Inverse Agonists (Inhibition Mode); also: nearly all actives have a fitted effect of over 55% in size
Conditions: HEK293 GLP-1R CRE-luciferase, luminescence, 24 h, GLP-1R form is constitutively active; activity change, negative = inhibition: at 38.3 µM (top of the series) unless noted
Summary of the method: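 Constitutively active GLP-1R drives a cAMP-responsive luciferase in stably transfected HEK293 cells; test compounds are added after overnight (12 h) attachment and left 24 hr, and signal loss in luminescence marks inhibition.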
% is scaled to controls: 0 for no effect and ±100 for the full control effect; potency is read from the fitted curve at half-maximal effect; tags tell the direction and shape of the fitted curve.

Chain of UniProt P43220 (P43220 whole entry, looked up): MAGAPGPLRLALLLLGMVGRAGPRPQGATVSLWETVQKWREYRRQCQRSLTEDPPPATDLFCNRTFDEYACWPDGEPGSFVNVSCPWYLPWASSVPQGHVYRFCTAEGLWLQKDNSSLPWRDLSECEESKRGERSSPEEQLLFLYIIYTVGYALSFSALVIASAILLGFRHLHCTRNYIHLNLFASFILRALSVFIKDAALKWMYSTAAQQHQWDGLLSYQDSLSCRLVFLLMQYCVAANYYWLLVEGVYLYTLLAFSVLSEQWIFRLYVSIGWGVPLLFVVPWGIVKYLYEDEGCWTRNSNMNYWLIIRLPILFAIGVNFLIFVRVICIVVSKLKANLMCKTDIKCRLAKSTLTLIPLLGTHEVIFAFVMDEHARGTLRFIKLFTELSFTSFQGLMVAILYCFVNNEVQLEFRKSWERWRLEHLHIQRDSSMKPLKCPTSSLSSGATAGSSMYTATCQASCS

Question: How did the Potency turn out when `Cc1ccc(S(=O)(=O)N2CCSCCSCCSCCSCC2)cc1` was run?
Answer: Its Potency is inconclusive [inhibitor, single point].

Question: For `O=C(c1cc(COc2ccc(F)cc2Cl)on1)N1CCSCC1`, which Potency is on record?
Answer: Its Potency is inconclusive [inhibitor, single point].

Question: Which Potency does the source give for `O=C(C1=C(O)C(=O)N(c2nccs2)C1c1ccccc1)c1cc2ccccc2o1` (configuration not stated) here?
Answer: Its Potency is inconclusive [inhibitor, full curve, poor fit].

Question: Which Potency does the source give for `c1ccc(Nc2nc(-c3ccncc3)cs2)cc1` here?
Answer: Its Potency is inconclusive [inhibitor, partial curve, poor fit].

Question: With `Cc1ccccc1-n1c(SCC(=O)N/N=C/C=C/c2ccccc2[N+](=O)[O-])nc2ccccc2c1=O` as the compound, how does the Potency read?
Answer: Its Potency is inconclusive [inhibitor, single point].

Question: With `CCCCN(C)CCN1C(=O)C2C(C(=O)Nc3ccc(Cl)cc3)C3C=CC2(O3)C1C(=O)NC1CCCCC1` (configuration not stated) as the compound, how does the Potency read?
Answer: The Potency was inconclusive [inhibitor, partial curve, poor fit].

Question: How did the Potency turn out when `Clc1ccc(CNc2nnnn2-c2ccccc2)c(Cl)c1` was run?
Answer: The Potency was inconclusive [inhibitor, partial curve, poor fit].

Question: `CCN(CC)CC(O)COC(c1ccccc1)c1ccccc1` (configuration not stated) was tested. Which “activity change, negative = inhibition” value did it give?
Answer: The value was inactive: -36.6%.

Question: For `Cc1ccc(Oc2ccccc2NC(=O)CN2C(=O)NC3(CCCC3)C2=O)cc1`, which Potency is on record?
Answer: The Potency was inconclusive [inhibitor, full curve, poor fit].

Question: With `Cc1ccc(C2CC(c3cccc(Cl)c3)n3nc(N)nc3N2)cc1` (configuration not stated) as the compound, how does the Potency read?
Answer: Its Potency is inconclusive [inhibitor, single point].

Question: How did the Potency turn out when `CCOC(=O)c1cc(-c2ccc(F)cc2)n(CCC(=O)NCCc2ccc(C)cc2)c1C` was run?
Answer: The Potency was inconclusive [inhibitor, partial curve, poor fit].

Question: For `C/C(=N\Nc1nc(C(C)(C)C)cs1)c1ccc(O)cc1`, which Potency is on record?
Answer: Its Potency is inconclusive [inhibitor, single point].

Question: For `Cc1cc(NC(=O)c2cc3cccc([N+](=O)[O-])c3[nH]2)ccc1F`, which Potency is on record?
Answer: Its Potency is inconclusive [inhibitor, single point].

Question: With `Cc1ccc(CN(Cc2ccco2)C(=O)COc2ccc(Cl)cc2)o1` as the compound, how does the Potency read?
Answer: The Potency was inconclusive [inhibitor, single point].

Question: For `FC(F)(F)c1cccc(NC(=S)NC(c2ccccc2)c2ccccc2)c1`, which Potency is on record?
Answer: The Potency was active: 2.82 µM.

Question: Which Potency does the source give for `COC(=O)c1cc(=O)n(Cc2ccc3c(c2)OCO3)c(=Nc2ccc(F)cc2)s1` here?
Answer: Its Potency is inconclusive [inhibitor, full curve, poor fit].

Question: Which Potency does the source give for `O=C(CCNS(=O)(=O)c1cccc2nonc12)Nc1ccc(Cl)cc1` here?
Answer: The Potency was inconclusive [inhibitor, single point].

Question: With `COc1cccc(C#Cc2c(C=O)n(C)c3ccccc23)c1` as the compound, how does the Potency read?
Answer: Its Potency is active: 10 µM.

Question: For `CC1(Cc2ccc(OC(F)(F)F)cc2)C(=O)Nc2c(Cl)ccc(Cl)c21` (configuration not stated), which Potency is on record?
Answer: The Potency was inconclusive [inhibitor, single point].

Question: `CN(C(=O)c1cc2c(s1)-c1ccc(Cl)cc1SC2)c1cccc(C(F)(F)F)c1` was tested. Which Potency did it give?
Answer: The Potency was inconclusive [inhibitor, partial curve, poor fit].

Question: How did the Potency turn out when `Cc1ccc(Cn2ccc(NC(=O)c3cc(C(C)C)on3)n2)cc1` was run?
Answer: The Potency was inconclusive [inhibitor, partial curve, poor fit].

Question: For `Cc1onc(-c2ccccc2)c1C(=O)Nc1ccc2c(C)cc(=O)oc2c1`, which “activity change, negative = inhibition” value is on record?
Answer: Its value is inactive: -9.01%.

Question: How did the Potency turn out when `Cc1cccc(NCc2ccccc2)c1` was run?
Answer: Its Potency is inconclusive [inhibitor, partial curve, poor fit].

Question: With `CCC(C)c1ccc(NC(=O)NCc2cccnc2)cc1` (configuration not stated) as the compound, how does the Potency read?
Answer: Its Potency is inconclusive [inhibitor, single point].

Question: `CN(C(=O)COC(=O)c1ccccc1NCCO)C1CCS(=O)(=O)C1` (configuration not stated) was tested. Which “activity change, negative = inhibition” value did it give?
Answer: Its value is inactive: 9.72%.

Question: `CCOC(=O)[C@]12CCC=C1N(Cc1ccc3c(c1)OCO3)C(=O)[C@H](CC(=O)N1CCC(c3ccccc3)CC1)C2` was tested. Which Potency did it give?
Answer: The Potency was inconclusive [inhibitor, single point].

Question: How did the Potency turn out when `O=C(N/N=C1/CCSC1)c1cccc([N+](=O)[O-])c1` was run?
Answer: The Potency was inconclusive [inhibitor, single point].

Question: `Cn1c(SCc2ccccc2F)nnc1-c1ccccn1` was tested. Which “activity change, negative = inhibition” value did it give?
Answer: The value was inactive: 5.34%.

Question: `COc1ccc(CNC(=S)Nc2ccc(F)c(Cl)c2)cc1OC` was tested. Which Potency did it give?
Answer: Its Potency is inconclusive [inhibitor, single point].

Question: `CCn1cc(/C=N/NS(=O)(=O)c2ccc(C)cc2)c(C)n1` was tested. Which “activity change, negative = inhibition” value did it give?
Answer: The value was inactive: -3.29%.

Question: For `COc1ccc(CC(=O)Nc2ccc3c(c2)C(=O)N(CCC(=O)O)C3=O)cc1`, which “activity change, negative = inhibition” value is on record?
Answer: The value was inactive: 5.04%.

Question: How did the Potency turn out when `CCC(NC(=O)CSc1nnnn1C1CC1)c1ccc(Br)cc1` (configuration not stated) was run?
Answer: The Potency was inconclusive [inhibitor, single point].

Question: With `Cc1cc(C)c(C(=O)/C=C/c2ccc3c(c2)OCO3)c(=O)[nH]1` as the compound, how does the Potency read?
Answer: Its Potency is inconclusive [inhibitor, partial curve, poor fit].

Question: `Nc1nc2c(s1)COc1ccccc1-2` was tested. Which Potency did it give?
Answer: Its Potency is inconclusive [inhibitor, single point].

Question: `Cc1ccnc(NC(=O)C2CCN(S(=O)(=O)c3ccc4c(c3)CC(C)N4C(=O)C3CCC3)CC2)c1` (configuration not stated) was tested. Which Potency did it give?
Answer: Its Potency is inconclusive [inhibitor, single point].

Question: `Cc1cc(Cl)ccc1C(=O)C1CCCN(C(=O)c2n[nH]c3c2CCCC3)C1` (configuration not stated) was tested. Which Potency did it give?
Answer: The Potency was inconclusive [inhibitor, partial curve, poor fit].

Question: How did the Potency turn out when `COC(=O)Nc1nc(C)c(C(=O)c2ccccc2)s1` was run?
Answer: The Potency was inconclusive [inhibitor, partial curve, poor fit].

Question: How did the Potency turn out when `COC(=O)c1cc(C(=O)N2CCN(c3cccc(Cl)c3)CC2)cc([N+](=O)[O-])c1` was run?
Answer: The Potency was inconclusive [inhibitor, full curve].

Question: For `CCCc1nc2c3ccccc3ccn2c1Cc1ccccc1C(F)(F)F`, which Potency is on record?
Answer: The Potency was inconclusive [inhibitor, single point].

Question: Which Potency does the source give for `COc1ccc([C@H]2CC(=O)C=C(c3cccc(C(F)(F)F)c3)C2)cc1` here?
Answer: Its Potency is inconclusive [inhibitor, partial curve, poor fit].

Question: For `CC1CCN(Cc2c(C(=O)N/N=C/c3ccc(C(F)(F)F)cc3)nnn2-c2nonc2N)CC1`, which Potency is on record?
Answer: The Potency was inconclusive [inhibitor, partial curve].

Question: How did the Potency turn out when `O=C1OCCN1C(=O)[C@H]1[C@H](c2ccc(Cl)cc2)C(c2ccc(F)cc2)=NN1c1ccc(Br)cc1` was run?
Answer: The Potency was inconclusive [inhibitor, partial curve, poor fit].

Question: For `O=C(CN1CCCc2ccccc21)NCCc1ccc(F)cc1`, which Potency is on record?
Answer: The Potency was inconclusive [inhibitor, partial curve, poor fit].

Question: `CCCCn1c(O)c(/C=C/C=C/C=Nc2ccccc2)sc1=S` was tested. Which Potency did it give?
Answer: Its Potency is inconclusive [inhibitor, single point].

Question: For `CCO[C@@H]1OC(C(=O)N2CCN(Cc3ccccc3)CC2)=C[C@H](c2csc3ccccc23)[C@H]1CCCO`, which Potency is on record?
Answer: The Potency was inconclusive [inhibitor, single point].

Question: For `CC(=O)NCC(=O)N(C)C(C(=O)Nc1ccc(C(C)C)cc1)c1ccccc1` (configuration not stated), which Potency is on record?
Answer: Its Potency is inconclusive [inhibitor, partial curve, poor fit].

Question: Which Potency does the source give for `Cc1nc(-c2ccc(F)cc2)c(CC(=O)N(C)CC(=O)Nc2ccc(Cl)c(C(F)(F)F)c2)s1` here?
Answer: Its Potency is inconclusive [inhibitor, partial curve, poor fit].

Question: `O=C(NCC(F)(F)F)c1ccc(S(=O)(=O)Nc2ccccc2N2CCCC2)cc1` was tested. Which Potency did it give?
Answer: Its Potency is inconclusive [inhibitor, single point].

Question: `C=C(C)CN=c1scc(C)n1/N=C/c1ccco1` was tested. Which Potency did it give?
Answer: The Potency was inconclusive [inhibitor, single point].

Question: With `COc1ccc(NC(=S)N(CCCN2CCN(C)CC2)Cc2cccs2)cc1` as the compound, how does the “activity change, negative = inhibition” value read?
Answer: Its value is inactive: -29.3%.

Question: For `COc1ccc(C)cc1NC(=O)CSCc1ccccc1C`, which Potency is on record?
Answer: The Potency was inconclusive [inhibitor, partial curve, poor fit].

Question: How did the Potency turn out when `CCCn1c(SCC(N)=O)nc2c(c1=O)C1(CCCC1)Cc1ccccc1-2` was run?
Answer: Its Potency is inconclusive [inhibitor, partial curve].

Question: With `O=C(Nc1ccc(O)cc1)c1cccc(Oc2ccc([N+](=O)[O-])cc2)c1` as the compound, how does the Potency read?
Answer: The Potency was inconclusive [inhibitor, single point].

Question: With `CN1C2C=C(N(CCc3ccccc3)C(=O)c3ccc(Cl)cc3)CC1CC2` (configuration not stated) as the compound, how does the Potency read?
Answer: Its Potency is inconclusive [inhibitor, partial curve, poor fit].

Question: Which Potency does the source give for `O=C(NNC(=O)c1csc(-c2cnccc2C(F)(F)F)n1)c1ccc(C(F)(F)F)cc1` here?
Answer: Its Potency is inconclusive [inhibitor, single point].

Question: Which Potency does the source give for `CSc1ccc(CN2CCC(Cc3ccccc3)CC2)cc1` here?
Answer: The Potency was inconclusive [inhibitor, single point].

Question: Which Potency does the source give for `COc1cc(OC)cc(C(=O)NCCOC23CC4CC(CC(C4)C2)C3)c1` here?
Answer: Its Potency is active: 10 µM.

Question: Which Potency does the source give for `COc1ccc(/C(N)=N/OC(=O)c2c(-c3ccccc3Cl)noc2C)cc1OC` here?
Answer: The Potency was inconclusive [inhibitor, partial curve, poor fit].

Question: For `CN(CCCC1CCCC1)C(=O)c1cc(COc2c(F)cccc2F)on1`, which Potency is on record?
Answer: Its Potency is inconclusive [inhibitor, single point].

Question: Which Potency does the source give for `CSC1CCCCC1(O)CSc1nc2ccccc2o1` (configuration not stated) here?
Answer: The Potency was inconclusive [inhibitor, partial curve, poor fit].

Question: Which “activity change, negative = inhibition” value does the source give for `CCOC(=O)c1c(C)n(C)c2ccc(OCC(O)Cn3c(C)nc4ccccc43)cc12` (configuration not stated) here?
Answer: Its value is inactive: 0%.

Question: Which “activity change, negative = inhibition” value does the source give for `CC(=O)Nc1cccc(/C(C)=N/NC(=O)c2c(-c3ccccc3Cl)noc2C)c1` here?
Answer: The value was inactive: 4.71%.
